Test results reported in ChEMBL document CHEMBL1201862, “PubChem BioAssay data set” (2004).
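Values below derive from 48-hour exposures of cells grown in 96-well plates, with endpoints linearly interpolated between the two concentrations bracketing the appropriate inhibition level. GI50 = concentration required for 50% inhibition of growth.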 Activity calls are given as the source filed them. Rule as the data show it: active = GI50 up to about 1.1 µM and inactive = higher.

tested on: NCI-H322M; assay: DTP human tumour cell line panel, 48 h

SMILES | GI50
NC(Cc1c[nH]c2ccc([N+](=O)[O-])cc12)C(=O)O (centres undefined) | inactive: > 100 µM
Cc1nc(-n2nc(-c3ccccc3)cc2-c2ccccc2)sc1C(=O)/C=C/c1ccccc1 | inactive: > 100 µM
Nc1ccc(S(=O)(=O)NCc2nccs2)cc1 | inactive: 16.9 µM
COc1cc(CC(=O)O)c([N+](=O)[O-])cc1OC | inactive: > 100 µM
CC(N/N=C(\S)N1CCN(c2ccccn2)CC1)c1cccc[n+]1[O-] (centres undefined) | inactive: 23.6 µM
CCCCCCCCCCCCCCCc1nnc(SCC(=O)O)[nH]1 | inactive: > 100 µM
Cc1sc2nc(-c3ccc([N+](=O)[O-])cc3)c(/C=N/N=C(N)N)n2c1C | inactive: 1.42 µM
O=C1c2ccccc2C(=O)c2c1ccc1conc21 | inactive: 12 µM
COC(=O)CC1CC2(C(=O)OC)c3[nH]c4ccccc4c3CCN2C1=O (centres undefined) | inactive: > 100 µM
O=C(c1ccccc1)N1C2CCC1C(C(F)(F)F)=C2C(F)(F)F | inactive: > 100 µM
COC(=O)c1c(CC(Cc2ccc3c(c2)CCCC3)C(=O)OC)ccc2c1CCCC2 (centres undefined) | inactive: > 100 µM
Cn1c(COC(=O)Nc2ccccc2)c(COC(=O)Nc2ccccc2)c2ccc3cc(Cl)c(Cl)cc3c21 | inactive: 13.1 µM
CC(=O)Nc1ccc(C(=O)N2N=C(C)/C(=C\c3c(O)ccc4ccccc34)C2=O)cc1 | inactive: > 100 µM
Brc1ccccc1-c1ncc(-c2ccccc2)o1 | inactive: 56.2 µM
Cc1c(C2Cc3ccccc3N2C(=O)/C=C\C(=O)O)c2ccccc2n1C (centres undefined) | inactive: 22.3 µM
COc1cc(C2CC(C)(O)Oc3cc4c(cc32)OCO4)cc(OC)c1OC (centres undefined) | active: 0.474 µM
COc1cc(/C=C2/SC(c3ccccc3)N(c3cccc(Cl)c3)C2=O)cc(OC)c1OC (centres undefined) | inactive: 69.3 µM
O=C(COC(=O)c1cccc2c(=O)c3ccccc3[nH]c12)Nc1ccc(C(=O)O)cc1 | inactive: 63.2 µM
CN1C(=O)C(O)CC1c1ccc(C(F)(F)F)cc1 (centres undefined) | inactive: > 100 µM
O=c1[nH]c(=O)n(COCCO)c2ccsc12 | inactive: > 100 µM
CN1C(=O)c2ccccc2NC(=O)c2cnn(C)c21 | inactive: > 100 µM
CC1(C)OCC(C2OC(On3nnc4ccc(Cl)cc43)C3OC(C)(C)OC23)O1 (centres undefined) | inactive: > 100 µM
C/C=C(\C)C(O)C(C)C(O)C/C=C(C)/C=C(\C)C/C(C)=C/C/C=C(\C)C(O)C(C)c1ccc(CCC)c(=O)o1 (centres undefined) | inactive: 15.2 µM
CC(=O)OCC(OC(C)=O)C(OC(C)=O)C(/C=N/N(C(C)=O)S(=O)(=O)c1ccc(/C=C2\NC(=O)NC2=O)cc1)OC(C)=O (centres undefined) | inactive: > 100 µM

SMILES | GI50
CC(C)(CO)CNc1nc(N)nc(Cl)c1/C=N/O | inactive: 66.7 µM
O=C1/C(=C/C=C/c2ccccc2)N=C(c2ccccc2)N1C1Nc2cc3c(cc2S1)NC(N1C(=O)/C(=C/C=C/c2ccccc2)N=C1c1ccccc1)S3 (centres undefined) | inactive: 73.5 µM
COc1ccc(/C=N\NC(=O)Nc2cccc3ccccc23)cc1 | inactive: 61.4 µM
O=S(=O)(N/N=C/c1cccc(/C=N/NS(=O)(=O)c2ccccc2)c1)c1ccccc1 | inactive: > 100 µM
COc1ccc(CC2Cc3ccccc3CCN2)cc1OC (centres undefined) | inactive: 25.4 µM
COc1c(C)c(C/C=C(\C)CCCC(C)CCCC(C)CCCC(C)C)c(OC)c2ccccc12 (centres undefined) | inactive: > 100 µM
Nc1nc(N)c(CCCCc2ccccc2)c(C=O)n1 | inactive: 17.2 µM
O=C1C(N2CCN(CCOCCO)CC2)=C(Cl)C(=O)c2ncccc21 | inactive: > 10 µM
O=C(CN1CCOCC1)c1ccc2c(c1)oc(=O)n2CCN1CCCC1 | inactive: > 100 µM
Cc1cccc(Nc2nn3c(=O)c4c5c(sc4nc3s2)CCCC5)c1 | inactive: > 100 µM
CC(C)OC(=O)c1ccc(NCC2=CC(=O)C=CC2=O)cc1 | inactive: 73.3 µM
CCN(CC)C(=S)SS(=O)(=O)c1cccc(N)c1 | inactive: > 100 µM
COc1ccc(/C(=N\NC(=S)NN)C(c2ccc(OC)cc2)C2C(=O)Oc3ccccc32)cc1 (centres undefined) | inactive: > 10 µM
O=C(Nc1ccccc1)N(CCN(Cc1ccccc1)C(=O)Nc1ccccc1)CCN(Nc1ccccc1)C(=O)Nc1ccccc1 | inactive: > 100 µM
C=C1C(=O)O[C@@H]2C[C@]3(C)[C@@H](C[C@H]12)[C@](C)(O)CC[C@@H]3O | inactive: 94.6 µM
O=C1C=CC(=O)c2c1ccc1c3ccccc3n(-c3cccc([N+](=O)[O-])c3)c21 | inactive: > 10 µM
CCCNC(=O)c1cc(NC(=O)c2cc(NC(=O)CCS(=O)(=O)OC)cn2C)cn1C | inactive: 21.3 µM
CCOC(=O)c1cc(C#N)[nH]c1-c1ccsc1 | inactive: 33.9 µM
O=C1c2cccc3cc([N+](=O)[O-])cc(c23)C(=O)N1Nc1ccc([N+](=O)[O-])cc1[N+](=O)[O-] | inactive: 47.6 µM
COC(=O)C1=C(C(=O)OC)C23C=CC=CC24C(C(=O)OC)=C(C(=O)OC)C4C1C3 (centres undefined) | inactive: > 100 µM
C1=C2/CC[C@H](Sc3ccccc3)C2C2(CCCCC/1)OCCO2 (some centres undefined) | inactive: 75.9 µM
c1ccc2sc(C3(N4CCCCC4)CCCCCC3)cc2c1 | inactive: 21.2 µM
CC1(C)OC(=O)N(c2ccccc2)C12C=Cc1cc([N+](=O)[O-])ccc1O2 (centres undefined) | inactive: 97.9 µM
C(=N\Nc1nnc2c(n1)[nH]c1ccccc12)/c1cccnc1 | inactive: > 100 µM

SMILES | GI50
C=CCCC1(C)CCCNC1=S (centres undefined) | inactive: > 100 µM
Cc1n[nH]/c(=N\S(=O)(=O)c2ccc(/N=N/c3c(O)c(C(=O)O)cc4ccccc34)cc2)s1 | inactive: > 100 µM
COc1cccc(/C=C2\SC(=S)N(/C=C3\C(=O)Oc4ccccc4C3=O)C2=O)c1O | inactive: 87.9 µM
CSc1ncnc2c1ncn2C1OC(CO)C(O)OC1O (centres undefined) | inactive: 2.47 µM
COc1ccc(Oc2nc3cc(C(F)(F)F)ccc3nc2C(C)C)cc1 | inactive: 33.3 µM
COc1ccc(OC)c2sc(N3C(=O)/C(=C/c4ccc(N(C)C)cc4)N=C3c3ccccc3)nc12 | inactive: > 100 µM
CC1C=CC(=O)C(n2cc(F)c(=O)[nH]c2=O)O1 (centres undefined) | inactive: 18.6 µM
C=CCNC1=NC(=O)C(CC(=O)Nc2cccc(Cl)c2)S1 (centres undefined) | inactive: > 100 µM
O=C1[C@@H]2[C@@H](c3ccccc3)[C@]2(Cl)C(=O)[C@H]2[C@H](c3ccccc3)[C@@]12Cl | inactive: > 100 µM
CCOC(=O)/C=C1\Oc2ccccc2C1(C)O (centres undefined) | inactive: > 100 µM
Cc1nc(C)c(N2CCN([N+](=O)[O-])CC2)c(O)n1 | inactive: > 100 µM
c1ccc(Sc2nc(Sc3ccccc3)nc(Sc3ccccc3)n2)cc1 | inactive: 17.8 µM
COc1cc2ccc1-c1cc(ccc1O)CC1c3cc4c(cc3CCN1C)Oc1c(OC)cc3c(c1O4)C(C2)N(C)CC3 (centres undefined) | inactive: 1.89 µM
C=C1CC(CC)(CCN2C(=O)c3ccccc3C2=O)OC1=O (centres undefined) | inactive: 28.8 µM
CCOP(=O)(OCC)C(F)(F)Cc1cnc(C)c2c1COC(C)(C)O2 | inactive: > 10 µM
O=C(CC(=O)c1cccc([N+](=O)[O-])c1)C(=O)Nc1nc([N+](=O)[O-])cs1 | inactive: > 100 µM
c1ccc(/N=C(/Nc2ccccc2)N2CCCC2)cc1 | inactive: > 100 µM
CCc1[nH]c(=O)c2oc3cc4ccccc4cc3c2c1C(=O)O | inactive: > 10 µM
CN(C)c1ncnc2c1Cc1ccccc1C(=O)N2C | inactive: > 100 µM
COC(=O)C(Cc1nc2ccccc2nc1O)C(=O)C(=O)Nc1ccc(F)cc1 (centres undefined) | inactive: > 100 µM
C=C1C(=O)OC2CC(C)C3(O)CCC(=O)C3(C)CC12 (centres undefined) | inactive: 59.3 µM
CC(C)(C)NNC(=O)/C(=C/c1ccc([N+](=O)[O-])cc1)NC(=O)c1ccccc1 | inactive: > 100 µM
O=c1[nH]/c(=C/c2ccc(OCc3ccccc3)cn2)c(=O)[nH]/c1=C/c1ccc(F)cc1 | active: 1.06 µM
O=C1CN2C(c3ccccc3)=NN(c3ccc([N+](=O)[O-])cc3)C2(c2ccccc2)c2cc(Cl)ccc2N1CC1CC1 (centres undefined) | inactive: > 100 µM

SMILES | GI50
CCOc1cccc2[s+]snc12 | inactive: > 100 µM
O=C1c2c(Br)sc(Br)c2[C@H]2OC(=S)N[C@@H]12 | inactive: 15.4 µM
CC(=O)C1=C(C)N(c2ccc(C)cc2)C2(O)C=CC(O)=C3C(=O)c4ccccc4C(=O)C312 (centres undefined) | inactive: 21.3 µM
NS(=O)(=O)c1cc(S(N)(=O)=O)c(NC(=O)N(c2ccccc2)c2ccccc2)c(Cl)c1Cl | inactive: 26.6 µM
O=C1CCC(NC(=O)Cc2ccc(O)cc2)C(=O)N1 (centres undefined) | inactive: > 2500 µM
Brc1ccc2c(c1)C1C(CO2)C(c2ccccc2)=NN1c1ccccc1 (centres undefined) | inactive: > 100 µM
O=C(CC(C(=O)c1ccsc1)c1ccc2c(c1)OCO2)c1ccccc1 (centres undefined) | inactive: > 100 µM
CCSCC(=O)N1CCc2c([nH]c3ccccc23)C1=O | inactive: > 100 µM
CCOC(=O)c1c(-c2ccc(OC)cc2)c(C#N)c(=S)n(C2OC(CO)C(O)C(O)C2O)c1C (centres undefined) | inactive: > 100 µM
COc1ccc2c(c1OC)C(=O)N1C2=Cc2c(cc3c(c2OC)OCO3)CC1N(C)C (centres undefined) | inactive: > 100 µM
CC(C)(C)Cc1cc(O)ccc1O | inactive: 46.5 µM
COC1(OC)C2(Cl)C(Cl)=C(Cl)C1(Cl)C1COCC12 (centres undefined) | inactive: > 100 µM
COc1cccc2c1OC1c3ccccc3OCC1C2 (centres undefined) | inactive: > 100 µM
C=CC(C)(C)C1(CC(OC)OC)C(=O)N(C)c2ccccc21 (centres undefined) | inactive: > 25 µM
CC(C)(C)N1Cc2ccccc2/C(=C/Sc2ccccc2)C1=O | inactive: 16.4 µM
Cc1cc(SCC(=O)c2ccc(Br)cc2)cc(C)[o+]1 | inactive: 32.3 µM
COc1cc(C2S/C(=C/c3ccccc3)C(=O)N2c2ccccn2)cc(OC)c1OC (centres undefined) | inactive: 41.3 µM
Cc1ccccc1/N=N/c1c(O)c(S(=O)(=O)O)cc2cc(S(=O)(=O)O)ccc12 | inactive: > 100 µM
CS(=O)(=O)N1CC(CCl)c2ccc(O)cc21 (centres undefined) | inactive: 4.81 µM
Cc1cn(C2CC(N(O)Cc3ccccc3)C(CO)O2)c(=O)[nH]c1=O (centres undefined) | inactive: > 100 µM
CCN(CCCl)CCNc1c2ccccc2nc2ccc(OC)cc12 | active: 0.689 µM
CCc1nc(N)nc(N)c1-c1ccc(Cl)c([N+]#N)c1 | inactive: 56.2 µM
